Results reported in patent publication US20250019440A1 (Zymeworks, published 2025).
Read-outs that look alike come from different tables or passages of the source.

Legend:
Human PD-L1 [1] = molecular target: T1, Human PD-L1 (human, UniProt Q9NZQ7 fragment); experiment: SPR, PD-L1 amine-coupled, variant as analyte
T1 construct: Amine-coupled to a CM5 chip for SPR; also called recombinant human PD-L1

Mouse PD-L1 [2] = molecular target: T2, Mouse PD-L1 (mouse, UniProt Q9EP73 fragment, limits assumed); experiment: SPR, PD-L1 amine-coupled, variant as analyte
T2 construct: Amine-coupled to a CM5 chip for SPR; also called recombinant mouse PD-L1

Cynomolgus monkey PD-L1 [3] = molecular target: T3, Cynomolgus monkey PD-L1 (cynomolgus monkey, UniProt G7PSE7 19-239); experiment: SPR, PD-L1 amine-coupled, variant as analyte
T3 construct: Amine-coupled to a CM5 chip for SPR; also called recombinant cynomolgus monkey PD-L1

Human CD3 (recombinant) [4] = molecular target: Human CD3 (recombinant) (human); experiment: SPR, CD3 amine-coupled, variant as analyte, 1:1 model
Human PD-L1 [5] = molecular target: T1, Human PD-L1; experiment: SPR, PD-L1 amine-coupled, variant as analyte, 1:1 model
Mouse PD-L1 [6] = molecular target: T2, Mouse PD-L1; experiment: as above
Cynomolgus monkey PD-L1 [7] = molecular target: T3, Cynomolgus monkey PD-L1; experiment: as above
Human PD-L1 [8] = molecular target: T1, Human PD-L1; experiment: SPR, PD-L1 amine-coupled, variant as analyte, 1:1 model; third of three variants in the merged cell (G1 4-1 PD-1)
PD-L1 on cells = PD-L1 on cells (UniProt Q9NZQ7); experiment: cell-based or functional assay
Human PD-L2 = molecular target: T4, Human PD-L2 (human, UniProt Q9BQ51 20-219); experiment: SPR, PD-L2 amine-coupled, variant as analyte
T4 construct: Amine-coupled to a CM5 chip for SPR; also called recombinant PD-L2
T4 sequence (looked up): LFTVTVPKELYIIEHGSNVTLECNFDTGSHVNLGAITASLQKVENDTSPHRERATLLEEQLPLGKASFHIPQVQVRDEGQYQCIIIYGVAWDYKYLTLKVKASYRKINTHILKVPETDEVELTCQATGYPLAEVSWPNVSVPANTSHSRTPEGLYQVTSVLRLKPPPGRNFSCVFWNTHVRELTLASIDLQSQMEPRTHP

Human CD3 (recombinant) [9] = molecular target: Human CD3 (recombinant) (human); experiment: SPR, CD3 amine-coupled, variant as analyte, 1:1 model; remark: listed apart in the source
Human PD-L1 [10] = molecular target: T1, Human PD-L1; experiment: SPR, PD-L1 amine-coupled, variant as analyte, 1:1 model; remark: listed apart in the source
Human PD-L1 [11] = molecular target: T1, Human PD-L1; experiment: as above; remark: listed apart in the source
Human mesothelin = molecular target: T5, Human mesothelin (human, UniProt Q13421 296-580, limits assumed); experiment: SPR, mesothelin amine-coupled; apparent KD, variant binds mesothelin bivalently but was fit 1:1
T5 construct: Amine-coupled to a CM5 chip for SPR; also called MSLN; recombinant human mesothelin

T3 sequence (G7PSE7 entry or part of it): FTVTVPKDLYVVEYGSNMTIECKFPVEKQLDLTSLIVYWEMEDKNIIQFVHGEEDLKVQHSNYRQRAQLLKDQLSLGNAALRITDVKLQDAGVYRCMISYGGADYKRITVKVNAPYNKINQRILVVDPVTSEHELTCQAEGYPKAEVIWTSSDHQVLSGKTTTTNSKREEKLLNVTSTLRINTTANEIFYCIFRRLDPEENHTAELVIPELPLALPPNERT
T2 sequence (Q9EP73 19-238 limits assumed): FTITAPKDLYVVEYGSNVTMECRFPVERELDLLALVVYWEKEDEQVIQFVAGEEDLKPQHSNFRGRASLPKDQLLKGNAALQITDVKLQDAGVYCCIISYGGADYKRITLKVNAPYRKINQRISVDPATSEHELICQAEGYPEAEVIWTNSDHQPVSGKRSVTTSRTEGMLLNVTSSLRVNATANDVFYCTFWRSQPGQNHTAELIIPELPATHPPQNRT
T1 sequence (Q9NZQ7 19-239 limits assumed): as the sequence (G7PSE7 entry or part of it) above, with T33A, S34A, N62S, Q68R, R82Q, L173F, A185T, I192T, L215H counted along it
Human CD3 (recombinant), sequence (chain, as listed by the source): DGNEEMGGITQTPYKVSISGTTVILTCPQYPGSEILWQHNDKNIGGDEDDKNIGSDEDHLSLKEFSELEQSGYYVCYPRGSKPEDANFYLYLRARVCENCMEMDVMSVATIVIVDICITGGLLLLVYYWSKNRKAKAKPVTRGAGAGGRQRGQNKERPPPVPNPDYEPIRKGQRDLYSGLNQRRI
PD-L1 on cells, sequence (Q9NZQ7 19-290 limits assumed): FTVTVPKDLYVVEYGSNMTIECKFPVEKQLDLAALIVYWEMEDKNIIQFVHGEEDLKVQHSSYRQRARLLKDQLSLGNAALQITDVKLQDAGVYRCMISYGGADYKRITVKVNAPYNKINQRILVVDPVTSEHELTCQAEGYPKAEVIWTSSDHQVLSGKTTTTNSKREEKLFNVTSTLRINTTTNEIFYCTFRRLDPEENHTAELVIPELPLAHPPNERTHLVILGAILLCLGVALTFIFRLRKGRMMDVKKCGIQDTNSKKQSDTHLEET
Human mesothelin, sequence (Q13421 other isoform, or with tags, fused parts or gaps limits assumed): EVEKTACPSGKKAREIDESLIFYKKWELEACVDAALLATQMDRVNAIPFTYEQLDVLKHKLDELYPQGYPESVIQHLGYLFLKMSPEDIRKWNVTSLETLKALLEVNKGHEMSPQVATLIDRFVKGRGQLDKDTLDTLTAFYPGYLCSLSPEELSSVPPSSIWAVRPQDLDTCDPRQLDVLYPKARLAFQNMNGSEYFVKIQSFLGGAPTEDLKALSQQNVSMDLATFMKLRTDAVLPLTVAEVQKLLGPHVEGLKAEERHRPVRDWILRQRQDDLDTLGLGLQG

B1: v38423 (other)
heavy 1: NPPTFSPALLVVTEGDNATFTCSFSNTSESFVLNWYRMSPSNQTDALAAFPEDRSQPGQDARFRVTQLPNGRDFHMSVVRARRNDSGTYLCGAASLAPKAQIKESLRAELRVTEGGGGSGQVQLVESGGGLVQPGGSLRLSCSVSGIDLSSNPMIWVRQAPGKGLQYIGIIDTDGSTYYADWAKGRFTISKDSTTVYLQINSPRAEDTAVYYCARRLHGSSNGYYDDLWGQGTLVTVSSASTKGPSVFPLAPSSKSTSGGTAALGCLVKDYFPEPVTVSWNSGALTSGVHTFPAVLQSSGLYSLSSVVTVPSSSLGTQTYICNVNHKPSNTKVDKKVEPKSCDKTHTCPPCPAPEAAGGPSVFLFPPKPKDTLMISRTPEVTCVVVSVSHEDPEVKFNWYVDGVEVHNAKTKPREEQYNSTYRVVSVLTVLHQDWLNGKEYKCKVSNKALPAPIEKTISKAKGQPREPQVYVLPPSRDELTKNQVSLLCLVKGFYPSDIAVEWESNGQPENNYLTWPPVLDSDGSFFLYSKLTVDKSRWQQGNVFSCSVMHEALHNHYTQKSLSLSPG
light: DGQMTQSPSSVSASVGDRVTITCQASQSIYSYLSWYQQKPGQRPKLLIYKASTLASGVPSRFSGSGSGTDFTLTISSVQPEDFATYYCQQGYTVTNVDKNTFGGGTKVEIKRTVAAPSVFIFPPSDEQLKSGTASVVCLLNNFYPREAKVQWKVDNALQSGNSQESVTEQDSKDSTYSLSSTLTLSKADYEKHKVYACEVTHQGLSSPVTKSFNRGEC
heavy 2: EVQLVESGGGLVQPGGSLRLSCAASGVTFNYYGMSWIRQAPGKGLEWVASITSSGGRIYYPDSVKGRFTISRENTQKTLYLQMNSLRAEDTAVYYCTLDGRDGWVAYWGQGTLVTVSSGGGGSGGGGSGGGGSGGGGSNFMLTQPHSVSESPGKTVTISCKRNTGNIGSNYVNWYQQHEGSSPTTIIYRNDKRPDGVSDRFSGSIDRSSKSASLTISNLKTEDEADYFCQSYSSGFIFGGGTKLTVLA[human IgG1 Fc with changes not shown]
notes: Cldn18.2 Fab x CD3 scFv Fc, attenuated (KO) PD-1 attached to HC2 (N-term)
binding result (Human PD-L1 [1]): no binding
binding result (Mouse PD-L1 [2]): no binding
binding result (Cynomolgus monkey PD-L1 [3]): no binding
Kd (Human CD3 (recombinant) [4]): 22 nM

B2: v38733 (other)
heavy 1: NPPTFSPALLVVTEGDNATFTCSFSNTSESFRLVWHRESPGYETDTLASFPEDRSTPLPDARFRVTQLPNGRDFHMSVVRARRNDSGTYVCGAIAFHPVIQIKESLRAELRVTEGGGGSGQVQLVESGGGLVQPGGSLRLSCSVSGIDLSSNPMIWVRQAPGKGLQYIGIIDTDGSTYYADWAKGRFTISKDSTTVYLQINSPRAEDTAVYYCARRLHGSSNGYYDDLWGQGTLVTVSSASTKGPSVFPLAPSSKSTSGGTAALGCLVKDYFPEPVTVSWNSGALTSGVHTFPAVLQSSGLYSLSSVVTVPSSSLGTQTYICNVNHKPSNTKVDKKVEPKSCDKTHTCPPCPAPEAAGGPSVFLFPPKPKDTLMISRTPEVTCVVVSVSHEDPEVKFNWYVDGVEVHNAKTKPREEQYNSTYRVVSVLTVLHQDWLNGKEYKCKVSNKALPAPIEKTISKAKGQPREPQVYVLPPSRDELTKNQVSLLCLVKGFYPSDIAVEWESNGQPENNYLTWPPVLDSDGSFFLYSKLTVDKSRWQQGNVFSCSVMHEALHNHYTQKSLSLSPG
light: DGQMTQSPSSVSASVGDRVTITCQASQSIYSYLSWYQQKPGQRPKLLIYKASTLASGVPSRFSGSGSGTDFTLTISSVQPEDFATYYCQQGYTVTNVDKNTFGGGTKVEIKRTVAAPSVFIFPPSDEQLKSGTASVVCLLNNFYPREAKVQWKVDNALQSGNSQESVTEQDSKDSTYSLSSTLTLSKADYEKHKVYACEVTHQGLSSPVTKSFNRGEC
heavy 2: EVQLVESGGGLVQPGGSLRLSCAASGVTFNYYGMSWIRQAPGKGLEWVASITSSGGRIYYPDSVKGRFTISRENTQKTLYLQMNSLRAEDTAVYYCTLDGRDGWVAYWGQGTLVTVSSGGGGSGGGGSGGGGSGGGGSNFMLTQPHSVSESPGKTVTISCKRNTGNIGSNYVNWYQQHEGSSPTTIIYRNDKRPDGVSDRFSGSIDRSSKSASLTISNLKTEDEADYFCQSYSSGFIFGGGTKLTVLA[human IgG1 Fc with changes not shown]
Kd (Human CD3 (recombinant) [4]): 26 nM
Kd (Human PD-L1 [5]): 75 nM
Kd (Mouse PD-L1 [6]): 19 nM
Kd (Cynomolgus monkey PD-L1 [7]): 23 nM
Kd (Human PD-L1 [8]): 85 nM

B3: v38449 (other)
heavy 1: DIQMTQSPSSLSASVGDRVTITCSASSSVSYMHWYQQKSGKAPKLLIYDTSKLASGVPSRFSGSGSGTDFTLTISSLQPEDFATYYCQQWSGYPLTFGQGTKLEIKGGGGSGGGGSGGGGSGGGGSQVQLVQSGAEVKKPGASVKVSCKASGYSFTGYTMNWVRQAPGQGLEWMGLITPYNGASSYNQKFRGKATMTVDTSTSTVYMELSSLRSEDTAVYYCARGGYDGRGFDYWGQGTLVTVSSGGGGSGEVQLVESGGGLVQPGGSLRLSCAASGVTFNYYGMSWIRQAPGKGLEWVASITSSGGRIYYPDSVKGRFTISRENTQKTLYLQMNSLRAEDTAVYYCTLDGRDGWVAYWGQGTLVTVSSASTKGPSVFPLAPSSKSTSGGTAALGCLVKDYFPEPVTVSWNSGALTSGVHTFPAVLQSSGLYSLSSVVTVPSSSLGTQTYICNVNHKPSNTKVDKK[human IgG1 Fc with changes not shown]
light: NFMLTQPHSVSESPGKTVTISCKRNTGNIGSNYVNWYQQHEGSSPTTIIYRNDKRPDGVSDRFSGSIDRSSKSASLTISNLKTEDEADYFCQSYSSGFIFGGGTKLTVLGQPKAAPSVTLFPPSSEELQANKATLVCLISDFYPGAVTVAWKADSSPVKAGVETTTPSKQSNNKYAASSYLSLTPEQWKSHRSYSCQVTHEGSTVEKTVAPTECS
heavy 2: [about 120 residues not shown]GGGSGDIQMTQSPSSLSASVGDRVTITCSASSSVSYMHWYQQKSGKAPKLLIYDTSKLASGVPSRFSGSGSGTDFTLTISSLQPEDFATYYCQQWSGYPLTFGQGTKLEIKGGGGSGGGGSGGGGSGGGGSQVQLVQSGAEVKKPGASVKVSCKASGYSFTGYTMNWVRQAPGQGLEWMGLITPYNGASSYNQKFRGKATMTVDTSTSTVYMELSSLRSEDTAVYYCARGGYDGRGFDYWGQGTLVTVSSAAEPKSSDKTHTCPPCPAPEAAGGPSVFLFPPKPKDTLMISRTPEVTCVVVSVSHEDPEVKFNWYVDGVEVHNAKTKPREEQYNSTYRVVSVLTVLHQDWLNGKEYKCKVSNKALPAPIEKTISKAKGQPREPQVYVLPPSRDELTKNQVSLLCLVKGFYPSDIAVEWESNGQPENNYLTWPPVLDSDGSFFLYSKLTVDKSRWQQGNVFSCSVMHEALHNHYTQKSLSLSPG
EC50 (read off the curve); hybrid PD-1/PD-L1 reporter gene assay, delta RLU, PD-1+ Jurkat T cells with HCT-116 cells; composite signal of CD3 engagement and PD-1:PD-L1 blockade (PD-L1 on cells): ~0.1 nM
binding result (Human PD-L2): no binding (tested: 7.17-500 nM)
Kd (Human CD3 (recombinant) [9]): 41 nM
Kd (Human PD-L1 [10]): 2.8 nM
Kd (Human PD-L1 [11]): 17 nM
Kd (Human mesothelin): 0.25 nM

B4: v38401 (other)
heavy 1: NPPTFSPALLVVTEGDNATFTCSFSNTSESFVLNWYRMSPSNQTDALAAFPEDRSQPGQDARFRVTQLPNGRDFHMSVVRARRNDSGTYLCGAASLAPKAQIKESLRAELRVTEEAAAKEAAAKEVQLVESGGGLVQPGGSLRLSCAASGVTFNYYGMSWIRQAPGKGLEWVASITSSGGRIYYPDSVKGRFTISRENTQKTLYLQMNSLRAEDTAVYYCTLDGRDGWVAYWGQGTLVTVSSASTKGPSVFPLAPSSKSTSGGTAALGCLVKDYFPEPVTVSWNSGALTSGVHTFPAVLQSSGLYSLSSVVTVPSSSLGTQTYICNVNHKPSNTKVDKK[human IgG1 Fc with changes not shown]
light: NFMLTQPHSVSESPGKTVTISCKRNTGNIGSNYVNWYQQHEGSSPTTIIYRNDKRPDGVSDRFSGSIDRSSKSASLTISNLKTEDEADYFCQSYSSGFIFGGGTKLTVLGQPKAAPSVTLFPPSSEELQANKATLVCLISDFYPGAVTVAWKADSSPVKAGVETTTPSKQSNNKYAASSYLSLTPEQWKSHRSYSCQVTHEGSTVEKTVAPTECS
heavy 2: [about 100 residues not shown]GGSGGGSGGGSGGGSGGGSG[about 120 residues not shown][about 250 residues not shown]
notes: CD3 x Her2 Fab x scFv Fc, attenuated (KO) PD-1 attached to CD3 HC
binding result (Human PD-L1 [1]): no binding
binding result (Mouse PD-L1 [2]): no binding
binding result (Cynomolgus monkey PD-L1 [3]): no binding
